Source: PMC12820563, “FoxP3 forms a head-to-head dimer in vivo and stabilizes its multimerization on adjacent microsatellites”
Some of the results follow.

Target: T1, MBP-FoxP1dN (Mus musculus, UniProt P58462 326-579)
T1 sequence: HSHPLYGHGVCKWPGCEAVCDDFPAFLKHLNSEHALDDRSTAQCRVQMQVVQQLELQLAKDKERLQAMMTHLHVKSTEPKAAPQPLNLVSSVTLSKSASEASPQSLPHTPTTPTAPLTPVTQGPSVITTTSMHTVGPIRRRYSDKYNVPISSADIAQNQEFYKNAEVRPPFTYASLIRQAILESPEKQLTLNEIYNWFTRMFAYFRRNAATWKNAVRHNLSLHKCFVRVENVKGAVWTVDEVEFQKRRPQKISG
Experiment: PD-seq (MBP pull-down with sequencing); 20 mM Tris-HCl pH 7.5, 100 mM NaCl, 1.5 mM MgCl2, 0.4 uM protein, 0.1 uM dsDNA library, 30 min, room temperature, amylose pull-down; high values mean tight binding
Conditions: protein: recombinant; tags: His6-MBP; chain copies: 2; dsDNA, one strand shown
Method in brief: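 Binding is reads-per-million enrichment of pull-down over input, with replicates pooled. It comes from 30 min room-temperature incubation in Tris pH 7.5 buffer with NaCl and MgCl2 of 0.4 µM His6-MBP-tagged, N-terminally truncated mouse FoxP3 or FoxP1 fragment from E. coli with 0.1 µM Klenow-filled degenerate double-stranded DNA library, followed by amylose resin capture, three washes and Illumina sequencing of the released DNA.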

Point of comparison: “GATGATTGTTCTCCCAGCTGATGAATTGAGGTCTTCGAGTAAACAAATTTTCCTAATCTTTCTGTTCAAGCGCCATCTAC”, binding signal 0.786 RPM ratio (pull-down/input). Against it:
- GATGATTGTTCTCCCAGCTGATGAATTCATCCGGTCGAGTAAACAAATTTTCCTAATCTTTCTGTTCAAGCGCCATCTAC — higher, 0.818 RPM ratio (pull-down/input)
- GATGATTGTTCTCCCAGCTGATGAATTTCTTCATTCGAGTAAACAAATTTTCCTAATCTTTCTGTTCAAGCGCCATCTAC — higher, 0.886 RPM ratio (pull-down/input)
- GATGATTGTTCTCCCAGCTGATGAATTGACGGTGTCGAGTAAACAAATTTTCCTAATCTTTCTGTTCAAGCGCCATCTAC — higher, 1.06 RPM ratio (pull-down/input)
- GATGATTGTTCTCCCAGCTGATGAATTCGGGATTTCGAGTAAACAAATTTTCCTAATCTTTCTGTTCAAGCGCCATCTAC — higher, 0.851 RPM ratio (pull-down/input)
- GATGATTGTTCTCCCAGCTGATGAATTCATACATTCGAGTAAACAAATTTTCCTAATCTTTCTGTTCAAGCGCCATCTAC — higher, 1.01 RPM ratio (pull-down/input)
- GATGATTGTTCTCCCAGCTGATGAATTATAAGTCTCGAGTAAACAAATTTTCCTAATCTTTCTGTTCAAGCGCCATCTAC — higher, 0.907 RPM ratio (pull-down/input)
- GATGATTGTTCTCCCAGCTGATGAATTAATTCATTCGAGTAAACAAATTTTCCTAATCTTTCTGTTCAAGCGCCATCTAC — higher, 0.901 RPM ratio (pull-down/input)
- GATGATTGTTCTCCCAGCTGATGAATTGTGGTCCTCGAGTAAACAAATTTTCCTAATCTTTCTGTTCAAGCGCCATCTAC — higher, 1.01 RPM ratio (pull-down/input)
- GATGATTGTTCTCCCAGCTGATGAATTTCTCGGGTCGAGTAAACAAATTTTCCTAATCTTTCTGTTCAAGCGCCATCTAC — higher, 0.834 RPM ratio (pull-down/input)
- GATGATTGTTCTCCCAGCTGATGAATTAACCATCTCGAGTAAACAAATTTTCCTAATCTTTCTGTTCAAGCGCCATCTAC — higher, 0.866 RPM ratio (pull-down/input)
- GATGATTGTTCTCCCAGCTGATGAATTCACCGGTTCGAGTAAACAAATTTTCCTAATCTTTCTGTTCAAGCGCCATCTAC — higher, 0.877 RPM ratio (pull-down/input)
- GATGATTGTTCTCCCAGCTGATGAATTGCGCTCGTCGAGTAAACAAATTTTCCTAATCTTTCTGTTCAAGCGCCATCTAC — higher, 1.07 RPM ratio (pull-down/input)
- GATGATTGTTCTCCCAGCTGATGAATTCTGCCTGTCGAGTAAACAAATTTTCCTAATCTTTCTGTTCAAGCGCCATCTAC — higher, 0.791 RPM ratio (pull-down/input)
- GATGATTGTTCTCCCAGCTGATGAATTTGAGAGGTCGAGTAAACAAATTTTCCTAATCTTTCTGTTCAAGCGCCATCTAC — lower, 0.717 RPM ratio (pull-down/input)
- GATGATTGTTCTCCCAGCTGATGAATTCGAATATTCGAGTAAACAAATTTTCCTAATCTTTCTGTTCAAGCGCCATCTAC — higher, 0.877 RPM ratio (pull-down/input)
- GATGATTGTTCTCCCAGCTGATGAATTTCCGATTTCGAGTAAACAAATTTTCCTAATCTTTCTGTTCAAGCGCCATCTAC — higher, 0.898 RPM ratio (pull-down/input)
- GATGATTGTTCTCCCAGCTGATGAATTGTGAGTTTCGAGTAAACAAATTTTCCTAATCTTTCTGTTCAAGCGCCATCTAC — higher, 1.11 RPM ratio (pull-down/input)
- GATGATTGTTCTCCCAGCTGATGAATTCTCCGGATCGAGTAAACAAATTTTCCTAATCTTTCTGTTCAAGCGCCATCTAC — lower, 0.76 RPM ratio (pull-down/input)
- GATGATTGTTCTCCCAGCTGATGAATTTGTTAGATCGAGTAAACAAATTTTCCTAATCTTTCTGTTCAAGCGCCATCTAC — higher, 1.21 RPM ratio (pull-down/input)
- GATGATTGTTCTCCCAGCTGATGAATTGATCGTATCGAGTAAACAAATTTTCCTAATCTTTCTGTTCAAGCGCCATCTAC — higher, 1.03 RPM ratio (pull-down/input)
- GATGATTGTTCTCCCAGCTGATGAATTCTTGTCTTCGAGTAAACAAATTTTCCTAATCTTTCTGTTCAAGCGCCATCTAC — higher, 0.873 RPM ratio (pull-down/input)
- GATGATTGTTCTCCCAGCTGATGAATTTCACTGATCGAGTAAACAAATTTTCCTAATCTTTCTGTTCAAGCGCCATCTAC — higher, 0.816 RPM ratio (pull-down/input)
- GATGATTGTTCTCCCAGCTGATGAATTGATGGGGTCGAGTAAACAAATTTTCCTAATCTTTCTGTTCAAGCGCCATCTAC — higher, 0.84 RPM ratio (pull-down/input)
- GATGATTGTTCTCCCAGCTGATGAATTTGATGCCTCGAGTAAACAAATTTTCCTAATCTTTCTGTTCAAGCGCCATCTAC — higher, 1.06 RPM ratio (pull-down/input)
- GATGATTGTTCTCCCAGCTGATGAATTTATCTTGTCGAGTAAACAAATTTTCCTAATCTTTCTGTTCAAGCGCCATCTAC — higher, 0.992 RPM ratio (pull-down/input)
- GATGATTGTTCTCCCAGCTGATGAATTTCAGGGCTCGAGTAAACAAATTTTCCTAATCTTTCTGTTCAAGCGCCATCTAC — lower, 0.746 RPM ratio (pull-down/input)
- GATGATTGTTCTCCCAGCTGATGAATTCGGTAAATCGAGTAAACAAATTTTCCTAATCTTTCTGTTCAAGCGCCATCTAC — higher, 1.22 RPM ratio (pull-down/input)
- GATGATTGTTCTCCCAGCTGATGAATTGAGATCATCGAGTAAACAAATTTTCCTAATCTTTCTGTTCAAGCGCCATCTAC — higher, 0.904 RPM ratio (pull-down/input)
- GATGATTGTTCTCCCAGCTGATGAATTCGATCGTTCGAGTAAACAAATTTTCCTAATCTTTCTGTTCAAGCGCCATCTAC — higher, 0.836 RPM ratio (pull-down/input)
- GATGATTGTTCTCCCAGCTGATGAATTATAATAATCGAGTAAACAAATTTTCCTAATCTTTCTGTTCAAGCGCCATCTAC — higher, 1.51 RPM ratio (pull-down/input)
- GATGATTGTTCTCCCAGCTGATGAATTAAATCCGTCGAGTAAACAAATTTTCCTAATCTTTCTGTTCAAGCGCCATCTAC — higher, 0.827 RPM ratio (pull-down/input)
